In the RNAGym collection of RNA variant scans (doi:10.7554/elife.90254):
Read counts are not given, so values of variants with three or more changes are uncertain.

B1: OR4K15 (parent)
chain: GUUAACGGUCAUAGGCCAUGGAAACUAGGAGCACCAUUUCGCUGCCAGUGAAGAAAUGAACAAAGAAAAUCUGGGCCAGGCAGGCAUCAAAAGAAAUAGUCUUGCGCUCAACCAGAAAGUCUGUAAUCAUUUUAAGGGUA

Variants of: B1
Experiment: self-cleavage, relative activity (ratio to wild type); higher = more cleavage; in vitro, sequencing; the parent is a self-cleaving ribozyme

Variant | self-cleavage
GUUAACGGUCAUAGGCCAUGGAAACCAGGGGCACCAUUUCGCUGCCAGUGAGGAAAUGAACAAAGAAAAUCUGGGCCAGGCAGGCAUCAAAAGAAAUAGUCUUGCGCUCAACCAGAAAGUCUGUAGUCAUUUUAAGGGUA | 0.44
GUUAACGGUCAUAGGCCAUGGAAACCAGGGGCACCAUUUCGCUGCCAGUGAAGAAAUGAACAAAGAAAAUCUGGGCCAGGCAGGCAUCAAAAGAAAUAGUCUUGCGCUCAACCAGAAAGUCUGUAGUCAUUUUAAGGGUA | 1.03
GUUAACGGUCAUAGGCCAUGGAAACCAGGUGCACCAUUUCGCUGCCAGUGAAGGAAUGAACAAAGAAAAUCUGGGCCAGGCAGGCAUCAAAAGAAAUUGUCUUGCGCUCAACCAGAAAGUCAGUAAUCAUUUUAAGGGUA | 1.05
GUUAACGGUCAUAGGCCAUGGAAACCAGGUGCACCAUAUCGCUGCCAGUGAAGGAAUGAACAAAGAAAGUCUGGGCCAGGCAGGCAUCAAAAGAAAUAGUCUUGCGCUCAACCAGAAAGUCUGUAAUCAUUUUAAGGGUA | 1.14
GUUAACGGUCAUAGGCCAUGGAAACCAGGAGCUCCAUUUCGCUGCCAGUGAAGACAUGAACAAAGAAAAUCUGGGCCAGGCAGGCAUCAAAAGAAAUAGUCUUGCGCUCAACCAGAAAGCCUGUAAUCAUUUUAAGGGAA | 0.96
GUUAACGGUCAUAGGCCAUGGAAACCAGGAGCACCAUUUCGCUGCCUGUGAAGAAAUGAACAGAGAAAAUCUGGGCCAGGCAGGCAUCAAAAGAAAUAGUCUUGCGCUCAACCAGAAAGUCUGUAAUCAUUUUAAGGGUA | 1.22
GUUAACGGUCAUAGGCCAUGGAAACCAGGAGCACCAUUUCGCUGCCUGUGAAGAAAUGAACAAAGAAAAUCUGGGCCAGGCAGGCAUCAAAAGAAAUAGUCUUGCGCUCAGCCAGAAAGUCUGUAAUCAUUUUAAGGGUA | 0.01
GUUAACGGUCAUAGGCCAUGGAAACCAGGAGCACCAUUUCGCUGCCAGUGGAGAAAUGAACAAAGAAAAUCUGGGCCAGGCAGGCAUCAAAAGAAAUAGUCUUGCGCUCAACCAGCAAGUCUGUAAUCAUUUUAAGGGCA | 0.02
GUUAACGGUCAUAGGCCAUGGAAACCAGGAGCACCAUUUCGCUGCCAGUGUAGAAAUGAACAAAGAAAAUCUGGGCCAGGCUGGCAUCAAAAGAAAUAGUCUUGCGCUCAACCAGAAAGUCUGUAAUCAUUUUAAGGGUA | 0.27
GUUAACGGUCAUAGGCCAUGGAAACCAGGAGCACCAUUUCGCUGCCAGUGAUGAAAUGAACAAAGAAAAUCUGGGCCAGGCAGGCAUCAAAAGAAAUAGCCUUGCGCUCAACCAGAAAGUCUGUAAUCAUUUUAAGGGUA | 2.31
GUUAACGGUCAUAGGCCAUGGAAACCAGGAGCACCAUUUCGCUGCCAGUGAUGAAAUGAACAAAGAAAAUCUGGGCCAGGCAGGCAUCAAAAGAAAUAGUCUUGCGCUCAACCAGAAAGUCUGUAAUCAUCUUAAGGGUA | 1.41
GUUAACGGUCAUAGGCCAUGGAAACCAGGAGCACCAUUUCGCUGCCAGUGAAGGAAUGAACAAAGAGAAUCUGGGCCAGGCAGGCAUCAAAGGAAAUAGUCUUGCGCUCAACCAGAAAGUCUGUAAUCAUUUUAAGGGUA | 2.11
GUUAACGGUCAUAGGCCAUGGAAACCAGGAGCACCAUUUCGCUGCCAGUGAAGGAAUGAACAAAGAAAAUCUGGGCCAGGCAGGCAACAAAAGAAAUAGUCUUGCGCUCAACCAGAAAGUCUGUAAUCAUUUUAAGGGUA | 0.77
GUUAACGGUCAUAGGCCAUGGAAACCAGGAGCACCAUUUCGCUGCCAGUGAAGGAAUGAACAAAGAAAAUCUGGGCCAGGCAGGCAUCAAAAGAAAUAGUCUUGCGCUCAACCAGAAAGUCCGUAAUCAUUUUAAGGGUA | 1.12
GUUAACGGUCAUAGGCCAUGGAAACCAGGAGCACCAUUUCGCUGCCAGUGAAGUAGUGAACAAAGAGAAUCUGGGCCAGGCAGGCAUCAAAAGAAAUAAUCUUGCGCUCAACCAGAAAGUCUGUAAUCAUUUUAAGGGUA | 0.14
GUUAACGGUCAUAGGCCAUGGAAACCAGGAGCACCAUUUCGCUGCCAGUGAAGAGAUGAACAAAGAAAAUCUGGGCCAGGCAGGCAUCAAUAGAAAUAGUCUUGCGCUCAACCAGAAAGACUGUAAUCAUUUUAAGGGUA | 1.51
GUUAACGGUCAUAGGCCAUGGAAACCAGGAGCACCAUUUCGCUGCCAGUGAAGAGAUGAACAAAGAAAAUCUGGGCCAGGCAGGCAUCAAAAGAAAUAGUCUUGCGCUCAACCAGACAGUCUGUAAUCAUUUUAAGGGUA | 0.41
GUUAACGGUCAUAGGCCAUGGAAACCAGGAGCACCAUUUCGCUGCCAGUGAAGAAGUGAACAAAGAAAAUCCGGGCCAGGCAGGCAUCAAAAGGAAUAGUCUCGCGCUCAACCAGAAAGUCUGUAAUCAUUUUAAGGGUA | 0.13
GUUAACGGUCAUAGGCCAUGGAAACCAGGAGCACCAUUUCGCUGCCAGUGAAGAAAUGGACAAAGAAAAUCUGGGCCAGGCUGGCAUCAAAAGAAAUAGCCUUGCGCUCAACCAGAAAGUCUGUAAUCAUUUUAAGGGAA | 0.45
GUUAACGGUCAUAGGCCAUGGAAACCAGGAGCACCAUUUCGCUGCCAGUGAAGAAAUGGACAAAGAAAAUCUGGGCCAGGCAGGCGCCAAGAGAAAUAGUCUUGCGCUCAACCAGAAAGUCUGUAAUCAUUUUUAGGGUA | 0.23
GUUAACGGUCAUAGGCCAUGGAAACCAGGAGCACCAUUUCGCUGCCAGUGAAGAAAUGGACAAAGAAAAUCUGGGCCAGGCAGGCAUCAAAAGGAAUAGUCCUGCACUCAACCAGAAAGUCUGUAAUCAUCUUAAGGGUA | 0
